Source: article PMC4336329 (PLoS ONE, 2015)
Hit rate of the full screen: of about 310,000 compounds, about 14,000 (4.5%) showed an effect of 50% or more. Effects have a minus sign here. The list shows a part of the results.

target: human ether-à-go-go-related gene (hERG) potassium channel (human, UniProt Q12809); assay: primary screen, population patch clamp on CHO cells stably expressing hERG
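Further: peak tail current of the secondary pulse compared with the same well before compound.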

Sequence of human ether-à-go-go-related gene (hERG) potassium channel (Q12809 whole entry, looked up): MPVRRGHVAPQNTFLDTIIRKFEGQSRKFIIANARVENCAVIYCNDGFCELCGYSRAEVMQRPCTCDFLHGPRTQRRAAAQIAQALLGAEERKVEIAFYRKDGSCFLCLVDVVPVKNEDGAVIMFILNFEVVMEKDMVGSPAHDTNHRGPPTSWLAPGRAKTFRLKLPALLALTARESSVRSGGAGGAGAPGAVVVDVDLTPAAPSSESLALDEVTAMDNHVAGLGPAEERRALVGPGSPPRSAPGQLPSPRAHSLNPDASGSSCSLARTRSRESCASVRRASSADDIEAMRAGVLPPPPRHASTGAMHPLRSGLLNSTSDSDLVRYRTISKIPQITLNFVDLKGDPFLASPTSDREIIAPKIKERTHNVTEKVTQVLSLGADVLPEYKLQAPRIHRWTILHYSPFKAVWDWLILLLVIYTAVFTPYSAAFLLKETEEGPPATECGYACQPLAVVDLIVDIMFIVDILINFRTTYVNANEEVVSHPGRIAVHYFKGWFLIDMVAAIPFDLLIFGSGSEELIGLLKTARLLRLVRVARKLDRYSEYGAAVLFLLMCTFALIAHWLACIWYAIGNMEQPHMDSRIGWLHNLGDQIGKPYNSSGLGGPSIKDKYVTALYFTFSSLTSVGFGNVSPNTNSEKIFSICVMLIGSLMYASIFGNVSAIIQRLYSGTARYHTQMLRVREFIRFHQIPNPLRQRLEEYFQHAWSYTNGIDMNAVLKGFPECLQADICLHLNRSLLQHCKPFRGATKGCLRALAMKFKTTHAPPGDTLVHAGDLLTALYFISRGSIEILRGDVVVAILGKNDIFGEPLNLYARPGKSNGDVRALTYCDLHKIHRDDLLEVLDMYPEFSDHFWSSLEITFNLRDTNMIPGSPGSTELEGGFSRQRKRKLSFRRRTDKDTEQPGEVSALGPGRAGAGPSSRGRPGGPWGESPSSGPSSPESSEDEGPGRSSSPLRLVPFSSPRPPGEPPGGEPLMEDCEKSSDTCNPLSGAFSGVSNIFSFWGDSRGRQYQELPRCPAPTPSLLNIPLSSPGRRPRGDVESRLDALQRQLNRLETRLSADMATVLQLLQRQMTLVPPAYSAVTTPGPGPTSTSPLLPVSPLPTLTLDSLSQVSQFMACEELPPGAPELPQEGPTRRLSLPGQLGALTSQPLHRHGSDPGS

Going from `CCOc1cc(N2CCOCC2)c(OCC)cc1NC(=O)CN1CCSC1=O` to `CCOc1ccc(S(=O)(=O)N2CCN(C(=O)c3cc([N+](=O)[O-])ccc3N3CCOCC3)CC2)cc1`, the “hERG current change (%, negative = inhibition) at 10uM” value falls from -13.6% to -20.8%.

First: Cc1ccc(OCC(=O)Nc2ccc3oc(=O)ccc3c2)c(C)c1
Second: Cc1ccc2nc(NC(=O)COC(=O)c3ccc(Br)o3)sc2c1
The “hERG current change (%, negative = inhibition) at 10uM” value of the first is lower: -26.5% for the first, -1.31% for the second.

Compared with `COc1ccc(CCNC(=O)CN(C)S(=O)(=O)c2ccc3nc(C)sc3c2)cc1OC`, `CCN(CC)S(=O)(=O)c1ccc(OC)c(NC(=O)Cn2cnc3c2c(=O)n(C)c(=O)n3C)c1` is lower in “hERG current change (%, negative = inhibition) at 10uM” value: 5.4% for the first, -41.3% for the second.

Going from `COc1ccc(-n2c(SCc3cn4c(C)cccc4n3)nc3ccccc3c2=O)cc1OC` to `COc1ccc(C2(CNC(=O)Cc3ccccc3)CCCC2)cc1OC`, the “hERG current change (%, negative = inhibition) at 10uM” value rises from -13.2% to 1.4%.

First: CCOc1ccccc1NC(=O)COC(=O)Cc1ccc(-c2ccccc2)cc1
Second: CCN(C(=O)COC(=O)CCc1ccccc1)c1ccccc1
The “hERG current change (%, negative = inhibition) at 10uM” value of the first is lower: 2.11% for the first, 6.18% for the second.

Going from `CC(C)NC(=O)c1ccc(S(=O)(=O)N(C)C)cc1` to `CCc1nn2c(=O)c(S(=O)(=O)Nc3ccc(C(C)C)cc3)c(C)nc2s1`, the “hERG current change (%, negative = inhibition) at 10uM” value falls from 0.0301% to -7.64%.

Compared with `CCN(CC)C(=O)CSc1nnc(-c2ccc(S(=O)(=O)N3CCOCC3)cc2)n1C`, `CC(=O)N1CCC(=NNc2ccc(S(=O)(=O)N3CCOCC3)cc2[N+](=O)[O-])CC1` is lower in “hERG current change (%, negative = inhibition) at 10uM” value: 10.4% for the first, -18.2% for the second.

Going from `O=C(N/N=C/c1ccc(F)cc1)c1cc(-c2ccco2)nc2ccccc12` to `O=C(N/N=C/C(Cl)=C/c1ccccc1)c1ccccc1F`, the “hERG current change (%, negative = inhibition) at 10uM” value rises from -0.0327% to 6.59%.

Compared with `Cc1ccc(/C=N/NC(=O)c2cccc([N+](=O)[O-])c2)o1`, `Cc1nonc1C(=O)N/N=C/c1ccc([N+](=O)[O-])o1` is higher in “hERG current change (%, negative = inhibition) at 10uM” value: -15.2% for the first, -4.8% for the second.

Compared with `N[C@@H](Cc1ccc(O)cc1)C(=O)Nc1ccc2ccccc2c1`, `C/C(=N/NC(=O)CSc1nc2ccccc2n1C)c1ccc(O)cc1` is higher in “hERG current change (%, negative = inhibition) at 10uM” value: -6.11% for the first, 21.1% for the second.

First: N#CC(C(=O)Nc1ccccc1)=C1CCCCC1
Second: O=C(NC(=S)N1CCCc2ccccc21)c1ccc(Cl)cc1
The “hERG current change (%, negative = inhibition) at 10uM” value of the first is higher: 6.6% for the first, 4.23% for the second.

Compared with `COc1ccc(/C=C(\NC(=O)c2ccc(OC)cc2)C(=O)N2CCCCC2)cc1`, `COc1ccc(/C(C)=N/NC(=O)CNC(=O)/C=C/c2ccccc2OC)cc1` is lower in “hERG current change (%, negative = inhibition) at 10uM” value: -3.21% for the first, -24.7% for the second.

Compared with `Cc1ccccc1N1CCN(S(=O)(=O)N(C)C)CC1`, `O=C(CCN1C(=O)c2ccccc2S1(=O)=O)N1CCN(c2ccccc2F)CC1` is lower in “hERG current change (%, negative = inhibition) at 10uM” value: 0.18% for the first, -5.02% for the second.

First: CC1CCCCN1C(=O)c1ccc(Br)o1 (stereo not shown)
Second: Cc1cc(NC(=S)NC(=O)C2CC2)ccc1Br
The “hERG current change (%, negative = inhibition) at 10uM” value of the first is lower: 4.26% for the first, 9.92% for the second.

First: COc1ccccc1N(CC(O)CN(c1ccccc1)S(C)(=O)=O)S(=O)(=O)c1ccccc1 (stereo not shown)
Second: CN(c1ccccc1)S(=O)(=O)c1cccc(NC(=O)CN2CCc3ccccc3C2)c1
The “hERG current change (%, negative = inhibition) at 10uM” value of the first is higher: -3.85% for the first, -5.64% for the second.

Going from `N#CCCN(C(=O)COC(=O)c1ccc(S(=O)(=O)Nc2ccccc2)cc1)c1ccccc1` to `Cc1ccccc1C(=O)Oc1cc(N)n(S(=O)(=O)c2ccccc2)n1`, the “hERG current change (%, negative = inhibition) at 10uM” value rises from 1.54% to 9.18%.

Going from `CC1CC(C)CN(C(=O)COc2ccc([N+](=O)[O-])cc2Cl)C1` (stereo not shown) to `CC(C)CN1C(=O)CC(Sc2ccccc2C(=O)O)C1=O` (stereo not shown), the “hERG current change (%, negative = inhibition) at 10uM” value falls from 23.8% to -10.6%.

Compared with `COCCN(CC(=O)Nc1cccc(C)c1C)C(=O)c1oc2c(Cl)cccc2c1C`, `Cc1onc(-c2ccccc2Cl)c1C(=O)NNC(=O)c1cccc(F)c1` is higher in “hERG current change (%, negative = inhibition) at 10uM” value: -9.84% for the first, 1.37% for the second.

Compared with `O=C(CSc1nnc2ccc(-c3ccncc3)nn12)Nc1ccc(F)cc1`, `Cn1c(CNC(=O)c2ccccc2F)nnc1SCc1ccc(Cl)cc1` is higher in “hERG current change (%, negative = inhibition) at 10uM” value: -63.2% for the first, -33.4% for the second.

First: COc1ccc(C(=O)N2CC3(CC(c4cccc(NC(=O)COc5ccc(Cl)cc5)c4)=NO3)C[C@@H]2C(N)=O)cc1 (stereo partly shown)
Second: Cc1cc(NC(=O)CCC(=O)N(c2ccccc2)C(C(=O)NC2CCCC2)c2ccncc2)no1 (stereo not shown)
The “hERG current change (%, negative = inhibition) at 10uM” value of the first is lower: -22.1% for the first, 2.53% for the second.

Going from `CCCCCn1c(N(C)Cc2ccccc2)nc2c1c(=O)[nH]c(=O)n2C` to `CCCCCN1CSC(=S)N(Cc2ccccc2)C1`, the “hERG current change (%, negative = inhibition) at 10uM” value rises from -17.1% to 8.69%.

First: Cc1cc(C)nc(NN=C(c2ccccc2)c2ccccc2)n1
Second: Cc1cc(C)n2nc(-c3ccccc3)c(-c3ccccc3)c2n1
The “hERG current change (%, negative = inhibition) at 10uM” value of the first is lower: 3.72% for the first, 17.4% for the second.

Going from `C=CCN(CC=C)C(=O)Nc1ccc(OCC)cc1` to `CC(C)(Oc1ccc(Cl)cc1)C(=O)NC1CC1`, the “hERG current change (%, negative = inhibition) at 10uM” value falls from 7.41% to 1.41%.

Compared with `CC1(C)CC2(CCO1)OC(=O)CC2C(=O)Nc1cccc2ccccc12` (stereo not shown), `C#Cc1cccc(C(=O)NC2CCCN(C3Cc4ccccc4C3)C2)c1` (stereo not shown) is lower in “hERG current change (%, negative = inhibition) at 10uM” value: 12% for the first, -64.4% for the second.

Going from `CCN(CC)c1nc2ccccc2nc1C(C#N)C(=O)NCCCOC` (stereo not shown) to `C=CCn1c(N)c(C(=O)Nc2ccccc2)c2nc3ccccc3nc21`, the “hERG current change (%, negative = inhibition) at 10uM” value rises from -19.3% to 16.7%.

Compared with `Cc1[nH]c(=O)c(Cc2ccccc2)c(O)c1C#N`, `Cn1c(=O)c(=O)n(C)c2cc(S(=O)(=O)N3CCC(Cc4ccccc4)CC3)ccc21` is lower in “hERG current change (%, negative = inhibition) at 10uM” value: 10.3% for the first, -10.9% for the second.

Compared with `Oc1cccc(/C=N\Nc2nncc(-c3ccccc3)n2)c1`, `O=C(CCCN1C(=O)/C(=C\c2ccccc2)SC1=S)Nc1ccc(O)cc1C(=O)O` is higher in “hERG current change (%, negative = inhibition) at 10uM” value: 1.72% for the first, 18.1% for the second.

In the case of `CCOc1ccccc1CNS(=O)(=O)c1cnc[nH]1`, the “hERG current change (%, negative = inhibition) at 10uM” value was 16.3%.
